From US9833497B2, “Human originated EGF domain proteins and use of the same” (CHENGDU SOURCEBIO LIMITED-LIABILITY COMPANY, priority 2013, dated 2017)

Tests used:
Assay type in all cases: cell-based
Enterobacter cloacae = experiment: MIC against Gram-negative bacteria: Enterobacter cloacae; conditions: 5×10^5 CFU/mL
Procedure: (§1) 1. Gram-negative bacteria, such as E. coli BL21, Pseudomonas aeruginosa, Klebsiella pneumonia, Enterobacter cloacae, Aeromonas hydrophila, Citrobacter diversus, Moraxella catarrhalis, Proteus mirabilis, Proteus vulgaris, Serratia marcescens, etc were streaked on solid LB medium and cultured respectively. Then, typical clones were picked, inoculated into common liquid LB medium respectively, and cultured at 37° C. with shaking at 185 rpm until the McFarland specific turbidity was 0.5. The bacterial culture of each of Gram-negative bacteria was centrifuged at 4000×g for 3 min, the supernatant was discarded, and the thalli were resuspended with fresh LB medium.
(§2) 2. The above-mentioned bacterial suspensions were diluted and inoculated into 96-well plates with the final concentration of the bacterial suspension being 5×10^5 CFU/mL per well.
(§3) 3. Each of the purified human-originated EGF domain proteins (PRT1 to PRT1498 in Table 1) was added to each of the above wells and subjected to two-fold serial dilution in concentration. Three parallel wells were set up for each concentration in the gradient.
(§4) 4. The above-mentioned 96-well plates were placed and cultured at 37° C. in shaking incubator shaking at 175 rpm. […] The minimal inhibitory concentration MIC is defined as the lowest concentration of the recombinant protein at which there is no growth of the bacteria.

E. coli DH5α = experiment: Antibacterial activity: MIC and growth curve against E. coli DH5α in 96-well plate; conditions: minimal inhibitory concentration against E. coli DH5α, 5×10^5 CFU/mL, 37° C., judged after 8 h
Procedure: 1. E. coli DH5α was exemplified. E. coli DH5α was streaked and cultured on LB solid medium. Then, a typical clone was picked and inoculated into common LB liquid medium, cultured at 37° C. with shaking at 185 rpm until the logarithmic growth phase was reached (OD600 of about 0.5). The bacterial culture was centrifuged at 4000×g for 3 min, the supernatant was discarded, and the thalli were resuspended with fresh LB medium.
2. The above-mentioned bacterial suspension was diluted and inoculated into a 96-well plate with the total volume of 100 μL per well and a bacterial count of 5×10^5 CFU/mL.
3. The recombinant protein hF VII-EGF1 was added to the above-mentioned wells with the final protein concentration in the well of the highest protein concentration being 50 μg/mL. Basing on this final concentration, a two-fold serial dilution was performed till a protein concentration gradient consisting of 50, 25, and 12.5 μg/mL was set up. Three parallel wells were set up for each concentration in the gradient.
4. The above-mentioned 96-well plate was placed and cultured at 37° C. in shaking incubator shaking at 175 rpm. Samples were taken every 30 min, the absorbance values were determined at 600 nm wavelength under a ultra violet spectrophotometer, and an inhibition curve was plotted. […] The minimal inhibitory concentration MIC is defined as the lowest concentration of the recombinant protein at which there is no growth of the bacteria.
According to the experimental procedures in Example 14, the minimal inhibitory concentrations (MIC, μg/mL) of the other human-originated EGF domain proteins (PRT2 to PRT1498 in Table 1) for E. coli DH5α were determined.

Aeromonas hydrophila = experiment: MIC against Gram-negative bacteria: Aeromonas hydrophila; conditions: 5×10^5 CFU/mL
Procedure: as §1, §2, §3, §4

Proteus mirabilis = experiment: MIC against Gram-negative bacteria: Proteus mirabilis; conditions: 5×10^5 CFU/mL
Procedure: as §1, §2, §3, §4

Moraxella catarrhalis = experiment: MIC against Gram-negative bacteria: Moraxella catarrhalis; conditions: 5×10^5 CFU/mL
Procedure: as §1, §2, §3, §4

Serratia marcescens = experiment: MIC against Gram-negative bacteria: Serratia marcescens; conditions: 5×10^5 CFU/mL
Procedure: as §1, §2, §3, §4

Proteus vulgaris = experiment: MIC against Gram-negative bacteria: Proteus vulgaris; conditions: 5×10^5 CFU/mL
Procedure: as §1, §2, §3, §4

Klebsiella pneumonia = experiment: MIC against Gram-negative bacteria: Klebsiella pneumonia; conditions: 5×10^5 CFU/mL
Procedure: as §1, §2, §3, §4

Citrobacter diversus = experiment: MIC against Gram-negative bacteria: Citrobacter diversus; conditions: 5×10^5 CFU/mL
Procedure: as §1, §2, §3, §4

Pseudomonas aeruginosa = experiment: MIC against Gram-negative bacteria: Pseudomonas aeruginosa; conditions: 5×10^5 CFU/mL
Procedure: as §1, §2, §3, §4

E. coli BL21 = experiment: MIC against Gram-negative bacteria: E. coli BL21; conditions: 5×10^5 CFU/mL
Procedure: as §1, §2, §3, §4

[1] = E. coli BL21, 10 h cultivation at 37° C.

Substance	MIC (μg/mL) E. cloacae (Enterobacter cloacae; 10 h cultivation at 37° C.) [µg/mL]	MIC (E. coli DH5α) [mg/L]	MIC (μg/mL) A. hydrophila (Aeromonas hydrophila; 10 h cultivation at 37° C.) [µg/mL]	MIC (μg/mL) P. mirabilis (Proteus mirabilis; 10 h cultivation at 37° C.) [µg/mL]	MIC (μg/mL) M. catarrhalis (Moraxella catarrhalis; 10 h cultivation at 37° C.) [µg/mL]	MIC (μg/mL) S. marcescens (Serratia marcescens; 10 h cultivation at 37° C.) [µg/mL]	MIC (μg/mL) P. vulgaris (Proteus vulgaris; 10 h cultivation at 37° C.) [µg/mL]	MIC (μg/mL) K. pneumonia (Klebsiella pneumonia; 10 h cultivation at 37° C.) [µg/mL]	MIC (μg/mL) C. diversus (Citrobacter diversus; 10 h cultivation at 37° C.) [µg/mL]	MIC (μg/mL) P. aeruginosa (Pseudomonas aeruginosa; 10 h cultivation at 37° C.) [µg/mL]	MIC (μg/mL) E. coli BL21 (E. coli BL21; [1]) [µg/mL]	further results
PRT810 (LSAECSASLCFHGGRCVPGSAQPCHCPPGFQGPRCQ; listed as Homo sapiens)	50	25	25	50	25	25	50	12.5	50	25	50	
PRT888 (DVDECSLGANPCEHAGKCINTLGSFECQCLQGYTGPRCE; listed as Homo sapiens)	25	12.5	12.5	25	12.5	12.5	25	50	25	12.5	50	
PRT1349 (DVDECAVGSDCSEHASCLNVDGSYICSCVPPYTGDGKNCA; listed as Homo sapiens)		50										MIC against E. cloacae (Enterobacter cloacae; Enterobacter cloacae, 10 h cultivation at 37° C.): 50 mg/L; MIC against A. hydrophila (Aeromonas hydrophila; Aeromonas hydrophila, 10 h cultivation at 37° C.): 12.5 mg/L; MIC against P. mirabilis (Proteus mirabilis; Proteus mirabilis, 10 h cultivation at 37° C.): 50 mg/L; MIC against M. catarrhalis (Moraxella catarrhalis; Moraxella catarrhalis, 10 h cultivation at 37° C.): 12.5 mg/L; MIC against S. marcescens (Serratia marcescens; Serratia marcescens, 10 h cultivation at 37° C.): 25 mg/L; MIC against P. vulgaris (Proteus vulgaris; Proteus vulgaris, 10 h cultivation at 37° C.): 12.5 mg/L; MIC against K. pneumonia (Klebsiella pneumonia; Klebsiella pneumonia, 10 h cultivation at 37° C.): 25 mg/L; MIC against C. diversus (Citrobacter diversus; Citrobacter diversus, 10 h cultivation at 37° C.): 50 mg/L; MIC against P. aeruginosa (Pseudomonas aeruginosa; Pseudomonas aeruginosa, 10 h cultivation at 37° C.): 12.5 mg/L; MIC against E. coli BL21 (E. coli BL21; [1]): 25 mg/L
PRT687 (DVDECRNRSFCGAHAVCQNLPGSFQCLCDQGYEGARDGRHCV; listed as Homo sapiens)		50										MIC E. cloacae (Enterobacter cloacae; 96-well plate, 37° C., 10 h): 25 mg/L; MIC A. hydrophila (Aeromonas hydrophila; 96-well plate, 37° C., 10 h): 25 mg/L; MIC P. mirabilis (Proteus mirabilis; 96-well plate, 37° C., 10 h): 12.5 mg/L; MIC M. catarrhalis (Moraxella catarrhalis; 96-well plate, 37° C., 10 h): 25 mg/L; MIC S. marcescens (Serratia marcescens; 96-well plate, 37° C., 10 h): 50 mg/L; MIC P. vulgaris (Proteus vulgaris; 96-well plate, 37° C., 10 h): 25 mg/L; MIC K. pneumonia (Klebsiella pneumonia; 96-well plate, 37° C., 10 h): 12.5 mg/L; MIC C. diversus (Citrobacter diversus; 96-well plate, 37° C., 10 h): 50 mg/L; MIC P. aeruginosa (Pseudomonas aeruginosa; 96-well plate, 37° C., 10 h): 50 mg/L; MIC E. coli BL21 (E. coli BL21; 96-well plate, 37° C., 10 h): 25 mg/L
